Results: PubChem BioAssay AID904 (National Center for Advancing Translational Sciences (NCATS), 2007)
Screen size: about 55,000 compounds; about 530 (0.96%) were called active. This list was built around the results that the source calls inconclusive (neither active nor inactive); the mix of calls is not that of the screen. The call rests on the fitted dose curve; in most records, active means well fitted cell-killing curve with a large enough effect; inconclusive means small, poorly fitted or top-dose-only effect; inactive means no such curve, though single readings can be large or run the other way. Potencies of inconclusive entries are doubtful fits and often do not repeat.

Assay: qHTS Screen for Compounds that Selectively Target Cancer Cells with p53 Mutations: Cytotoxicity of p53 Null Cells at the Nonpermissive Temperature; further: nearly all actives have a fitted effect of over 50% in size;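 on activity, negative = cell killing: 0% = DMSO only and -100% = full killing by 100 µM tamoxifen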
Details: H1299 p53-null (neo) cells, 39C, ATPlite viability, 24 h; activity, negative = cell killing: at 46.1 µM (top of the series)
In short: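 H1299 lung cancer cells, p53-null (H1299-neo) or expressing p53 A138V (H1299-p53A138V), were plated overnight at 37C, then exposed to compounds at up to 46 uM for 24 hr at 39C. Viability was read by ATP-based luminescence.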
Potency means the concentration at half of the fitted maximal effect; tags describe the fitted curve by direction and shape.

Structure (SMILES)	activity, negative = cell killing	Potency
Cc1cc(F)ccc1S(=O)(=O)Nc1cc2c(C(=O)O)c(C)oc2c2ccccc12	inactive: 18.6%	–
COc1ccc(OC)c(CC2C(=O)Nc3ccc(Br)cc32)c1 (stereo unspecified)	–	inconclusive: 31.6 µM [cytotoxic, single point]
COC(=O)c1cc2sccc2n1Cc1ccc(F)cc1Cl	–	inconclusive: 35.5 µM [cytotoxic, single point]
O=C(Nc1nc2c(F)cccc2s1)c1ccc2c(c1)OCCO2	–	inconclusive: 3.55 µM [cytotoxic, partial curve]
Cc1nc(NC(=O)CSc2cc(C)c3ccccc3n2)c(Cl)cc1Cl	–	inconclusive: 0.398 µM [cytotoxic, partial curve]
Cc1ccc(S(=O)(=O)N(CC(O)Cn2c3ccccc3c3ccccc32)c2cccc(C(=O)NCCO)c2)cc1 (stereo unspecified)	–	inconclusive: 35.5 µM [cytotoxic, single point]
CCOc1cc(CNc2ccc(O)cc2)cc(Cl)c1OCc1ccccc1	inconclusive: -81.1% [cytotoxic]	–
Cn1cccc1-c1cc2n(n1)CCC(=O)N2CC(=O)Nc1ccc(F)cc1Cl	–	inconclusive: 0.126 µM [cytotoxic, full curve, poor fit]
O=C(CCCc1ccccc1)NC1CC(=O)N(c2ccc(F)cc2)C1 (stereo unspecified)	inactive: 4.88%	–
COc1ccc(CNC(=O)Nc2cn(CC(C)C)c(=O)c3ccccc23)cc1	–	inconclusive: 15.8 µM [cytotoxic, single point]
CCc1cnc2c(c1SCC(=O)NCc1ccc(F)cc1)c(=O)n(C)c(=O)n2C	inactive: 14.6%	–
Cc1cccc(C(=O)Nc2ccc3nc(SCCOc4ccccc4)sc3c2)c1	inactive: -1.21%	–
Cc1ccc(Nc2nnc(-c3ccc(C)c(S(=O)(=O)N4CCOCC4)c3)c3ccccc23)cc1	–	inconclusive: 3.16 µM [cytotoxic, full curve]
COc1cccc(CNC(=O)c2cccc(-n3c(C)nc4cccnc43)c2)c1OC	inactive: 10.7%	–
O=C(NCCc1ccccc1)c1ccc(Nc2nc3ccccc3n3nnnc23)cc1	–	inconclusive: 10 µM [cytotoxic, partial curve]
Cc1ccc2c(c1)N(C(=O)Nc1cccc3c1CCCC3)CCO2	–	inconclusive: 25.1 µM [cytotoxic, partial curve, poor fit]
Cc1cccc(CCNC(=O)c2cc3c(s2)-c2c(C)cccc2OC3)c1	inactive: -23.4%	–
O=C(Nc1ccc(OC(F)(F)F)cc1)Nc1cccc([N+](=O)[O-])c1	–	inconclusive: 10 µM [cytotoxic, partial curve, poor fit]
COc1ccc(-c2noc(CN(C(=O)C(C)Oc3ccc(C)cc3)C(C)C)n2)cc1 (stereo unspecified)	–	inconclusive: 3.98 µM [cytotoxic, full curve, poor fit]
COc1ccc2cc3c(N)nn(C(=O)c4ccccc4Cl)c3nc2c1	–	inconclusive: 12.6 µM [cytotoxic, single point]
CC1CCCN(CCCNC(=O)c2ccc3c(c2)N(Cc2ccc(Cl)cc2)C(=O)c2ccccc2S3(=O)=O)C1 (stereo unspecified)	–	active: 15.8 µM
COc1cccc(NC(=O)Cn2cc(S(=O)(=O)Cc3ccccc3F)c3ccccc32)c1	–	inconclusive: 25.1 µM [cytotoxic, single point]

Structure (SMILES)	activity, negative = cell killing	Potency
CCOC(=O)N1CCN(Cc2nc3cc(NC(=O)c4cccc(C)c4)ccc3n2C(C)C)CC1	–	inconclusive: 2 µM [cytotoxic, full curve]
CCOCc1cc(CN2CCN(c3ccccc3OC)CC2)c(O)c2ncccc12	–	active: 1.26 µM
COc1ccc(C(=O)/C=C/c2cn(CC(O)CN3CCc4ccccc43)c3ccccc23)cc1 (stereo unspecified)	inactive: -7.15%	–
COc1ccc(-c2nnc(SCC(=O)Nc3ccc(C)c(C)c3)s2)cc1	inactive: 4.05%	–
COC(=O)CN1C(=O)C(C)(C)c2cc(S(=O)(=O)Nc3ccc(Br)cc3F)ccc21	inactive: -1.03%	–
CC(=O)C1=C(c2ccccc2)N(C(C)=O)n2c(nnc2C2CCCCC2)S1	–	inconclusive: 3.16 µM [cytotoxic, partial curve]
CSc1ncc(Cl)c(C(=O)Nc2ccc(S(=O)(=O)Nc3nccc(C)n3)cc2)n1	–	inconclusive: 15.8 µM [cytotoxic, partial curve]
CCOc1cc(OCC)cc(C(=O)Nc2cccc(-c3nc4ccccc4[nH]3)c2)c1	–	inconclusive: 14.1 µM [cytotoxic, partial curve]
Cc1cccn2cc(-c3cccc(NC(=O)C(C)C)c3)nc12	–	inconclusive: 10 µM [cytotoxic, partial curve]
CCC(=O)Nc1ccc2nc(SCCOc3ccc(C)cc3OC)sc2c1	inactive: -18.1%	–
CCn1c(=O)cc(OCC(=O)N2CCN(c3ccc(C)cc3)C(C)C2)c2ccccc21 (stereo unspecified)	–	active: 25.1 µM
COCCNC(=O)c1sc2ncccc2c1-n1c(C)ccc1C	–	inconclusive: 0.1 µM [cytotoxic, full curve, poor fit]
COCCCNC(=O)Cn1c(=O)n(-c2ccc(C)c(C)c2)c(=O)c2c3c(sc21)CCCCC3	–	inconclusive: 7.94 µM [cytotoxic, partial curve]
O=C(COc1ccc(F)cc1)Nc1nnc(S(=O)(=O)N2CCCC2)s1	–	inconclusive: 0.398 µM [cytotoxic, single point]
COc1ccc(NC(=O)c2ccc(NC(=O)N3CCSc4ncccc43)cc2)cc1	–	inconclusive: 31.6 µM [cytotoxic, single point]
Cc1ccc(-n2ncc3c(NCCCN4CCOCC4)ncnc32)cc1C	inactive: -13.3%	–
CC(C)NC(=O)c1ccc(Cn2c(SCc3ccc(F)cc3)nc3cccnc32)cc1	–	inconclusive: 2.51 µM [cytotoxic, full curve]
Cc1cccc(CS(=O)(=O)c2ncc(Cl)c(C(=O)Nc3nnc(C(C)C)s3)n2)c1	–	active: 12.6 µM
Cc1oc(-c2ccc(C(=O)Nc3ccc(F)cc3)cc2)nc1COc1ccccc1	inactive: 13.7%	–
COc1cc(Nc2nc(SCc3ccc(Cl)cc3)nc3ccccc23)cc(OC)c1	–	inconclusive: 11.2 µM [cytotoxic, single point]
Cc1c(C(=O)NCc2cccnc2)oc2ccc(S(=O)(=O)N3CCCCC3)cc12	–	inconclusive: 11.2 µM [cytotoxic, partial curve, poor fit]
CCOC(=O)c1c(-c2ccc(C)cc2)csc1NC(=O)c1cc(=O)c2cc(C)ccc2o1	–	inconclusive: 3.98 µM [cytotoxic, single point]

Structure (SMILES)	activity, negative = cell killing	Potency
CC(C)(C)C1CCc2c(sc(NC(=O)Cn3nnc(-c4ccccc4Cl)n3)c2C#N)C1 (stereo unspecified)	inactive: -2.76%	–
COC(=O)c1ccc(Cl)cc1NC(=O)NCCc1c(C)nn(C)c1C	–	inconclusive: 0.316 µM [cytotoxic, full curve]
COc1ccc(OC)c(C(=O)CC2(O)C(=O)N(Cc3ccccc3C)c3ccccc32)c1 (stereo unspecified)	–	inconclusive: 35.5 µM [cytotoxic, single point]
CCOc1ccc(CCNC(=O)Cn2c(-c3cccs3)cc3ccccc32)cc1OCC	inactive: -0.765%	–
CCCCNC(=O)c1ccc2c(c1)N=C(CC)c1ccccc1S2	–	inconclusive: 20 µM [cytotoxic, partial curve]
O=C(NCCCN1CCN(c2cccc(Cl)c2)CC1)c1ccc2nc(Cc3ccccc3)oc2c1	–	inconclusive: 5.01 µM [cytotoxic, partial curve, poor fit]
COc1ccc(C2(C(=O)Nc3ccc(S(=O)(=O)Nc4nc(C)cc(C)n4)cc3)CCCC2)cc1OC	–	inconclusive: 0.316 µM [cytotoxic, partial curve, poor fit]
CCc1ccc(NC(=O)Cn2c(=O)n(CCCC(=O)NCc3ccc4c(c3)OCO4)c(=O)c3ccccc32)cc1	–	inconclusive: 12.6 µM [cytotoxic, single point]
COc1ccc(N2CCN(C(=O)C(C)n3nc(C)c4sc5ccccc5c4c3=O)CC2)cc1 (stereo unspecified)	–	active: 12.6 µM
O=C(Nc1nc2c(F)cccc2s1)c1ccc(S(=O)(=O)N2CCCc3ccccc32)cc1	–	inconclusive: 0.005 µM [cytotoxic, full curve, poor fit]
Cc1[nH]c2ccccc2c1C1(O)C(=O)N(Cc2ccccc2)c2ccc(Cl)cc21 (stereo unspecified)	–	inconclusive: 11.2 µM [cytotoxic, partial curve]
O=C(CN1C(=O)CSc2ccc(S(=O)(=O)N3CCCC3)cc21)NCc1ccccc1Cl	–	inconclusive: 31.6 µM [cytotoxic, single point]
COc1ccc(-c2nnc(SC(C)C(=O)O)o2)cc1 (stereo unspecified)	–	active: 15.8 µM
COc1ccccc1N1CCN(S(=O)(=O)c2ccc(F)c(C(=O)Nc3ccc(Cl)cc3C(F)(F)F)c2)CC1	inactive: -2.72%	–
Cc1ccc(S(=O)(=O)c2nc(-c3cccs3)oc2SCc2ccc(F)cc2)cc1	–	inconclusive: 0.02 µM [cytotoxic, full curve, poor fit]
COc1ccc(Cl)cc1NC(=O)Cn1c(=O)n(-c2ccc(C)cc2)c(=O)c2ccc(C(=O)NCc3ccccc3Cl)cc21	–	inconclusive: 0.02 µM [cytotoxic, single point]
O=S(=O)(NCCc1csc(-c2cccc(F)c2)n1)c1cc(F)ccc1F	inactive: 12%	–
Cc1cccc(C(=O)Nc2ccc3nc(SCC(=O)N4CCCC4)sc3c2)c1	–	inconclusive: 1 µM [cytotoxic, full curve]
Cc1ccc(NC(=O)c2nc(S(=O)(=O)Cc3ccc(F)cc3)ncc2Cl)cc1C	–	inconclusive: 25.1 µM [cytotoxic, single point]
CSc1ccc(/C=C/c2nc3ccccc3n2S(=O)(=O)c2ccc(Br)cc2)cc1	–	active: 2.51 µM
CCOc1ccc(CN2C(=O)C(=O)c3cccc(C)c32)cc1OC	–	active: 20 µM
Cc1cccc(C(=O)N2c3ncnn3C3(CCCCC3)[C@@H]3CCCC[C@@H]32)c1	–	inconclusive: 31.6 µM [cytotoxic, single point]
